Reference: US20130116284A1, “LIPOIC ACID AND NITROXIDE DERIVATIVES AND USES THEREOF” (RADIKAL THERAPEUTICS INC., priority 2010, published 2013)

Tested on: RAW cells
Assay: cytoprotection of RAW cells exposed to H2O2 (viability)
Settings: 0.1 μM, pre-treated 4 hours, H2O2 200 μM for 24 hours

SMILES: C[C@]1(c2nc3c(C(N)=O)cccc3[nH]2)CCCN1 [ABT-888]
- extent of recovery of viability: 10%

SMILES: NC(=O)c1cccc2[nH]c(CCCCC3CCSS3)nc12 (centres unmarked) [compound 1, 2-(4-(1,2-dithiolan-3-yl)butyl)-1H-benzo[d]imidazole-4-carboxamide]
- extent of recovery of viability: 25%
